# Reference: PubChem BioAssay AID463173 (ICCB-Longwood Screening Facility, Harvard Medical School, 2010)
# The whole screen tested about 52,000 compounds, of which about 1,700 (3.3%) were called active. Rule as the data show it: active = survival mostly below about 52% (no sharp cut-off); inactive = mostly above about 56%. The list shows a part of the results.
# Tested on: Wild type
# Assay: growth inhibition of S. aureus wild type versus tarO mutant, primary screen, teichoic acid synthesis inhibitors, RN4220, OD600 (AID 463173)
# Details: S. aureus RN4220 wild type/DeltatarO growth, OD600, 18 h, hits give low values, screened at 18.75 µg/mL (by protocol)
row,Structure (SMILES),survival
1,CC(C)OCCCNC(=O)c1cn(C)c2ccc(S(=O)(=O)N(C)C3CCCCC3)cc2c1=O,inactive: 93%
2,COc1ccc(S(=O)(=O)N2CCC(Oc3cccc(C(F)(F)F)c3)CC2)cc1OC,inactive: 84%
3,CN(CC(=O)Nc1ccc(OC(F)(F)F)cc1)S(=O)(=O)c1ccc2c(c1)CCC(=O)N2,inactive: 131%
4,CCc1cccc(NC(=O)c2cnc(N3CCOCC3)c3ccccc23)c1,inactive: 73%
5,CC(C)(C)NC(=O)c1cccc(NC(=O)c2ccco2)c1,inactive: 100%
6,Cc1c(C(=O)N2CCCC2)oc2c1-c1nn(CC(=O)NCc3ccc(OC(C)C)cc3)cc1CC2,inactive: 88%
7,Cc1ccc(-n2c(=O)c3c(C)c(C(=O)N(C)C)sc3n(CC(=O)N(C)c3ccccc3)c2=O)cc1C,inactive: 69%
8,Cc1ccc(C)c(NC(=O)CSc2nc3nccnc3c(=O)n2CCc2c[nH]c3ccccc23)c1,inactive: 67%
9,Cc1ccc(CSc2nc(N)cc(N)n2)cc1,inactive: 106%
10,Cc1ccc2occ(-c3cc(-c4ccccc4)nc4c3COc3ccccc3-4)c(=O)c2c1,inactive: 71%
11,O=C(Nc1ccc(-c2nc3cc(Cl)ccc3o2)cc1)c1cc(Br)ccc1Cl,inactive: 134%
12,CCc1cccc(C)c1NC(=O)CN1CCN(Cc2ccccc2Cl)S1(=O)=O,inactive: 134%
13,CCc1ccc(NC(=O)Cn2c(=O)c3cccn3c3ccccc32)cc1,inactive: 93%
14,CCC1(C)N=c2c(c(=O)n(C)c(=O)n2C)=NO1 (stereo not drawn),inactive: 101%
15,COc1ccc(-c2csc3nc(-c4ccc(Cl)cc4)oc(=O)c23)cc1,inactive: 80%
16,Cc1cccc(NC(=O)CCn2cnnn2)c1,inactive: 78%
17,CCN(C(=O)CSc1nc2ccccc2c2nc(CCn3c(C)nc4ccccc43)nn12)c1cccc(C)c1,inactive: 99%
18,CCN(CC)S(=O)(=O)c1ccc2c(c1)N(CC(=O)N1CCN(c3cccc(C)c3)C(C)C1)C(=O)CO2 (stereo not drawn),inactive: 77%
19,COc1cc(C(=O)Nc2ccc3nc4n(c(=O)c3c2)CCCCC4)cc(OC)c1OC,inactive: 82%
20,Cc1ccc(Nc2c(-c3ccc(N4CCOCC4)cc3)nc3ccc(C)cn23)cc1,inactive: 85%

row,Structure (SMILES),survival
1,CC(=O)c1ccc(N2CCN(C(=O)Nc3ccc(C)cc3)CC2)cc1,inactive: 135%
2,Cn1c(=O)oc2cc(S(=O)(=O)NC(CC(=O)O)c3cccc(Br)c3)ccc21 (stereo not drawn),inactive: 80%
3,COc1ccc(NC(=O)CSc2nnc(N)s2)cc1,inactive: 73%
4,Cc1cc(Nc2ccccc2C)c2cccc(C)c2n1,inactive: 100%
5,O=C(NCc1c(-n2cccc2)sc2c1CCCC2)Nc1cccc(C(F)(F)F)c1,inactive: 77%
6,Cn1c(Cc2ccccc2)nnc1SCC#N,inactive: 103%
7,CCC(C)n1c(SCC(=O)Nc2ccccc2C(=O)OC)nc2ccsc2c1=O (stereo not drawn),active: -1%
8,CCOc1ccc(C(=O)N2CC(=O)Nc3ccc(C)cc3C2c2ccc(F)cc2)cc1OCC (stereo not drawn),inactive: 88%
9,CCc1ccc(NC(=O)C2CCCN(S(=O)(=O)c3ccc4c(c3)oc(=O)n4C)C2)cc1 (stereo not drawn),inactive: 85%
10,COc1cccc(C=Nc2ccc3c(c2)ncn3C)c1OC,inactive: 102%
11,COCCCNC(=O)CCCn1c(SCC(=O)c2ccc(Br)cc2)nc2c(sc3ccccc32)c1=O,inactive: 86%
12,Cc1ccc(C(=O)NCC(c2ccc(Cl)cc2)N2CCCCC2)cc1 (stereo not drawn),inactive: 84%
13,Cc1ccc(CNc2ccc(N3CCOCC3)cc2)cc1,inactive: 104%
14,Cc1ccc(Cl)c2sc(NC(=O)c3ccc(S(=O)(=O)N4CCCC4)cc3)nc12,inactive: 45%
15,COc1cccc(CNC(=O)c2cccc(N3CCCS3(=O)=O)c2)c1,inactive: 85%
16,COC(=O)c1ccc(NC(=O)c2cnn(-c3ccc(Cl)cc3)c2C2CCN(C(=O)OC(C)(C)C)CC2)cc1,inactive: 117%
17,CCc1nn(CC(=O)NCCc2ccc(Cl)cc2)c(=O)c2cc3c(OC)cccc3n12,inactive: 89%
18,COc1ccccc1C(=O)Nc1cccc(OCc2cc(=O)n3ccccc3n2)c1,inactive: 87%
19,Cc1ccc(C)c(NC(=O)CSc2nc3ccccc3nc2N2CCOCC2)c1,inactive: 76%
20,CCSc1ccccc1C(=O)N1CCN(c2nc3ccccc3s2)CC1,inactive: 101%

row,Structure (SMILES),survival
1,CC(C)(C)OC(=O)N1CCC(c2c(C(=O)N3CCCCC3)cnn2-c2ccc(F)cc2)CC1,inactive: 78%
2,COc1cccc(NC(=O)c2oc3ccc(S(=O)(=O)N(C)C4CCCCC4)cc3c2C)c1,inactive: 138%
3,CCN(CC)C(=O)c1c(NC(=O)c2ccccc2F)sc2c1CCC(C(C)(C)C)C2 (stereo not drawn),active: -3%
4,CCc1ccc(-c2nn(-c3ccc(OC)cc3)c3c2cnc2ccc(OC)cc23)cc1,active: 9%
5,Cc1cc(C)c(NC(=O)c2cc(C)nc3c2c(C)nn3-c2cccc(F)c2)c(C)c1,inactive: 83%
6,Cc1cc2oc(C(=O)N(Cc3ccc(Cl)cc3)Cc3ccco3)c(C)c2cc1Cl,inactive: 91%
7,CCCn1c(=O)sc2cc(NC(=O)c3ccccc3Cl)ccc21,inactive: 71%
8,COc1cc(NC(=O)CCn2nc(C)cc2C)cc(OC)c1OC,inactive: 70%
9,Cc1nn(-c2ccccc2)c2[nH]c(=O)c(CNc3ccccc3)cc12,inactive: 111%
10,O=C(CSc1nccn1Cc1ccc2c(c1)OCO2)Nc1ccccc1F,inactive: 89%
11,COc1cccc(N2CCN(C(=O)c3cccn3-c3nnc(N4CCCCC4)s3)CC2)c1,inactive: 94%
12,CCC1CCCCN1CCCNC(=O)c1cn(C)c2ccc(S(=O)(=O)N(C)C3CCCCC3)cc2c1=O (stereo not drawn),inactive: 86%
13,Cc1ccc(-c2noc(CNC(C)C)n2)cc1,inactive: 104%
14,COc1ccc(-c2cc(C(=O)Nc3ccc4c(c3)OCO4)no2)cc1,inactive: 88%
15,COc1cc(/C=C(/C#N)c2nc(-c3cc4ccccc4oc3=O)cs2)ccc1O,inactive: 120%
16,COc1cccc(C=Nc2cccc3c(=O)[nH][nH]c(=O)c23)c1O,inactive: 104%
17,CC1CCCCN1C(=O)CSc1nc(-c2ccccc2)no1 (stereo not drawn),inactive: 73%
18,Cc1cccc(NC(=O)CSc2nc3c([nH]c4ccccc43)c(=O)n2-c2cc(C)cc(C)c2)c1,inactive: 73%
